According to the supplement of paper PMC7125110:
± gives the standard error. Variants at the floor of the assay are shown more often than the library holds them.

B1: glmS ribozyme (parent)
chain: AUAAAAGCGCCAGAACUACAGAAAUGUAGUUGACGAGGAGGAGGUUUAUCGAAUUUUCGGCGGAUGCCUCCAAA

Columns and labels:
Settings in all cases: with glucosamine-6-phosphate
glucosamine-6-phosphate [1] = variants of: B1; test: self-cleavage kobs at 40 uM GlcN6P; higher = faster cleavage; RNA array
Outline: (§1)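 Barcoded ribozyme variants, transcribed in situ by E. coli RNA polymerase on sequenced MiSeq chips, were followed via a hybridised Cy3 probe at 37 °C. Glucosamine-6-phosphate ranged from 40 μM to 10 mM in HEPES/KCl/Mg(OAc)2 buffer. kobs came from decay fits to per-tile medians, and kcat and KM from weighted Michaelis–Menten fits.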

glucosamine-6-phosphate [2] = variants of: B1; test: self-cleavage kobs at 10000 uM GlcN6P; higher = faster cleavage; RNA array
Outline: as §1

glucosamine-6-phosphate [3] = variants of: B1; test: self-cleavage kobs at 160 uM GlcN6P; higher = faster cleavage; RNA array
Outline: as §1

glucosamine-6-phosphate [4] = variants of: B1; test: self-cleavage kobs at 640 uM GlcN6P; higher = faster cleavage; RNA array
Outline: as §1

glucosamine-6-phosphate [5] = variants of: B1; test: self-cleavage kobs at 2500 uM GlcN6P; higher = faster cleavage; RNA array
Outline: as §1

## G35U G37C U49G C61U C67A
glucosamine-6-phosphate [1]
  self-cleavage kobs at 40 uM GlcN6P: < 1e-05 s⁻¹
glucosamine-6-phosphate [2]
  self-cleavage kobs at 10000 uM GlcN6P: < 1e-05 s⁻¹

## G35U G38A
glucosamine-6-phosphate [1]
  self-cleavage kobs at 40 uM GlcN6P: < 1e-05 s⁻¹
glucosamine-6-phosphate [3]
  self-cleavage kobs at 160 uM GlcN6P: < 1e-05 s⁻¹
glucosamine-6-phosphate [2]
  self-cleavage kobs at 10000 uM GlcN6P: < 1e-05 s⁻¹

## G35U G43C
glucosamine-6-phosphate [1]
  self-cleavage kobs at 40 uM GlcN6P: < 1e-05 s⁻¹
glucosamine-6-phosphate [4]
  self-cleavage kobs at 640 uM GlcN6P: < 1e-05 s⁻¹
glucosamine-6-phosphate [3]
  self-cleavage kobs at 160 uM GlcN6P: < 1e-05 s⁻¹
glucosamine-6-phosphate [5]
  self-cleavage kobs at 2500 uM GlcN6P: < 1e-05 s⁻¹

## G35U U54G
glucosamine-6-phosphate [1]
  self-cleavage kobs at 40 uM GlcN6P: < 1e-05 s⁻¹
glucosamine-6-phosphate [3]
  self-cleavage kobs at 160 uM GlcN6P: < 1e-05 s⁻¹
glucosamine-6-phosphate [5]
  self-cleavage kobs at 2500 uM GlcN6P: < 1e-05 s⁻¹

## A36C A48G
glucosamine-6-phosphate [1]
  self-cleavage kobs at 40 uM GlcN6P: < 1e-05 s⁻¹
glucosamine-6-phosphate [2]
  self-cleavage kobs at 10000 uM GlcN6P: < 1e-05 s⁻¹

## A36C C67U
glucosamine-6-phosphate [1]
  self-cleavage kobs at 40 uM GlcN6P: < 1e-05 s⁻¹
glucosamine-6-phosphate [2]
  self-cleavage kobs at 10000 uM GlcN6P: < 1e-05 s⁻¹

## A36C G43A
glucosamine-6-phosphate [1]
  self-cleavage kobs at 40 uM GlcN6P: < 1e-05 s⁻¹
glucosamine-6-phosphate [4]
  self-cleavage kobs at 640 uM GlcN6P: < 1e-05 s⁻¹
glucosamine-6-phosphate [3]
  self-cleavage kobs at 160 uM GlcN6P: < 1e-05 s⁻¹
glucosamine-6-phosphate [2]
  self-cleavage kobs at 10000 uM GlcN6P: < 1e-05 s⁻¹

## A36G A52U
glucosamine-6-phosphate [1]
  self-cleavage kobs at 40 uM GlcN6P: < 1e-05 s⁻¹
glucosamine-6-phosphate [4]
  self-cleavage kobs at 640 uM GlcN6P: < 1e-05 s⁻¹
glucosamine-6-phosphate [3]
  self-cleavage kobs at 160 uM GlcN6P: < 1e-05 s⁻¹
glucosamine-6-phosphate [5]
  self-cleavage kobs at 2500 uM GlcN6P: < 1e-05 s⁻¹
glucosamine-6-phosphate [2]
  self-cleavage kobs at 10000 uM GlcN6P: < 1e-05 s⁻¹

## A36G G38A G44C
glucosamine-6-phosphate [1]
  self-cleavage kobs at 40 uM GlcN6P: < 1e-05 s⁻¹
glucosamine-6-phosphate [2]
  self-cleavage kobs at 10000 uM GlcN6P: < 1e-05 s⁻¹

## A36G G40A
glucosamine-6-phosphate [1]
  self-cleavage kobs at 40 uM GlcN6P: < 1e-05 s⁻¹
glucosamine-6-phosphate [4]
  self-cleavage kobs at 640 uM GlcN6P: < 1e-05 s⁻¹
glucosamine-6-phosphate [3]
  self-cleavage kobs at 160 uM GlcN6P: < 1e-05 s⁻¹
glucosamine-6-phosphate [2]
  self-cleavage kobs at 10000 uM GlcN6P: < 1e-05 s⁻¹

## A36G U45C U56A
glucosamine-6-phosphate [1]
  self-cleavage kobs at 40 uM GlcN6P: < 1e-05 s⁻¹

## A36G U45G
glucosamine-6-phosphate [1]
  self-cleavage kobs at 40 uM GlcN6P: < 1e-05 s⁻¹
glucosamine-6-phosphate [4]
  self-cleavage kobs at 640 uM GlcN6P: < 1e-05 s⁻¹
glucosamine-6-phosphate [3]
  self-cleavage kobs at 160 uM GlcN6P: < 1e-05 s⁻¹
glucosamine-6-phosphate [5]
  self-cleavage kobs at 2500 uM GlcN6P: < 1e-05 s⁻¹
glucosamine-6-phosphate [2]
  self-cleavage kobs at 10000 uM GlcN6P: < 1e-05 s⁻¹

## A36G U56G
glucosamine-6-phosphate [1]
  self-cleavage kobs at 40 uM GlcN6P: < 1e-05 s⁻¹

## A36U A39U U55C
glucosamine-6-phosphate [1]
  self-cleavage kobs at 40 uM GlcN6P: < 1e-05 s⁻¹
glucosamine-6-phosphate [4]
  self-cleavage kobs at 640 uM GlcN6P: < 1e-05 s⁻¹

## A36U G62C
glucosamine-6-phosphate [1]
  self-cleavage kobs at 40 uM GlcN6P: < 1e-05 s⁻¹
glucosamine-6-phosphate [4]
  self-cleavage kobs at 640 uM GlcN6P: < 1e-05 s⁻¹
glucosamine-6-phosphate [2]
  self-cleavage kobs at 10000 uM GlcN6P: < 1e-05 s⁻¹

## G37A C68A
glucosamine-6-phosphate [1]
  self-cleavage kobs at 40 uM GlcN6P: < 1e-05 s⁻¹
glucosamine-6-phosphate [4]
  self-cleavage kobs at 640 uM GlcN6P: < 1e-05 s⁻¹
glucosamine-6-phosphate [3]
  self-cleavage kobs at 160 uM GlcN6P: < 1e-05 s⁻¹
glucosamine-6-phosphate [5]
  self-cleavage kobs at 2500 uM GlcN6P: < 1e-05 s⁻¹
glucosamine-6-phosphate [2]
  self-cleavage kobs at 10000 uM GlcN6P: < 1e-05 s⁻¹

## G37A G38C C67U
glucosamine-6-phosphate [1]
  self-cleavage kobs at 40 uM GlcN6P: < 1e-05 s⁻¹

## G37A U56A
glucosamine-6-phosphate [1]
  self-cleavage kobs at 40 uM GlcN6P: 1.92e-05 ± 6.8e-06 s⁻¹
glucosamine-6-phosphate [3]
  self-cleavage kobs at 160 uM GlcN6P: 4.84e-05 ± 1.8e-05 s⁻¹
glucosamine-6-phosphate [2]
  self-cleavage kobs at 10000 uM GlcN6P: 0.000962 ± 0.00011 s⁻¹

## G37C A42U
glucosamine-6-phosphate [1]
  self-cleavage kobs at 40 uM GlcN6P: < 1e-05 s⁻¹
glucosamine-6-phosphate [3]
  self-cleavage kobs at 160 uM GlcN6P: < 1e-05 s⁻¹

## G37C A42U C70A
glucosamine-6-phosphate [1]
  self-cleavage kobs at 40 uM GlcN6P: < 1e-05 s⁻¹

## G37C G44U
glucosamine-6-phosphate [1]
  self-cleavage kobs at 40 uM GlcN6P: < 1e-05 s⁻¹
glucosamine-6-phosphate [4]
  self-cleavage kobs at 640 uM GlcN6P: < 1e-05 s⁻¹

## G37C U54A U69G
glucosamine-6-phosphate [1]
  self-cleavage kobs at 40 uM GlcN6P: < 1e-05 s⁻¹

## G37U A39U C70G
glucosamine-6-phosphate [1]
  self-cleavage kobs at 40 uM GlcN6P: < 1e-05 s⁻¹

## G37U A48U U56G
glucosamine-6-phosphate [1]
  self-cleavage kobs at 40 uM GlcN6P: < 1e-05 s⁻¹
glucosamine-6-phosphate [4]
  self-cleavage kobs at 640 uM GlcN6P: < 1e-05 s⁻¹
glucosamine-6-phosphate [3]
  self-cleavage kobs at 160 uM GlcN6P: < 1e-05 s⁻¹
glucosamine-6-phosphate [5]
  self-cleavage kobs at 2500 uM GlcN6P: < 1e-05 s⁻¹

## G37U G40U C67G
glucosamine-6-phosphate [1]
  self-cleavage kobs at 40 uM GlcN6P: < 1e-05 s⁻¹
glucosamine-6-phosphate [4]
  self-cleavage kobs at 640 uM GlcN6P: < 1e-05 s⁻¹
